These are yes or no findings as the source states them, for the method shown. Binding seen in cells or lysates may run through a third protein. Some results given as binding are weak or reduced against the parent protein; the word gives no strength.
What was measured:
[1] = target: β1-integrin, murine (mouse (endogenous in melan-a, 4C, 4C11- and 4C11+ cells)) (UniProt P09055); experiment: co-IP; membrane-enriched extracts of murine tumorigenic 4C11- and 4C11+ melanoma cells; immunoprecipitated with anti-β1-integrin or anti-CD63 on protein G-agarose, 4°C; Western blot with anti-Timp1 or anti-β1-integrin
[2] = target: T1, CD63 (tetraspanin), murine (mouse (endogenous in melan-a, 4C, 4C11- and 4C11+ cells)) (UniProt P41731); experiment: as above
T1 sequence: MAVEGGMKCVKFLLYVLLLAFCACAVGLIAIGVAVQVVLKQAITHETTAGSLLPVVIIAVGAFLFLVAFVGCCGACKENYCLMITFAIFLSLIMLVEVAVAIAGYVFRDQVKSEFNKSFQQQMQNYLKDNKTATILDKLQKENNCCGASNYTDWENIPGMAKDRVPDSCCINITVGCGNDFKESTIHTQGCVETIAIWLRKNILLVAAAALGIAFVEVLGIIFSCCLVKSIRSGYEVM

Amino acid sequences for entries named in this document (tags omitted). A change or cut given only in a name is not applied to a line headed by its entry. Residues count along the entry.
UniProt P09055, residues 21-798: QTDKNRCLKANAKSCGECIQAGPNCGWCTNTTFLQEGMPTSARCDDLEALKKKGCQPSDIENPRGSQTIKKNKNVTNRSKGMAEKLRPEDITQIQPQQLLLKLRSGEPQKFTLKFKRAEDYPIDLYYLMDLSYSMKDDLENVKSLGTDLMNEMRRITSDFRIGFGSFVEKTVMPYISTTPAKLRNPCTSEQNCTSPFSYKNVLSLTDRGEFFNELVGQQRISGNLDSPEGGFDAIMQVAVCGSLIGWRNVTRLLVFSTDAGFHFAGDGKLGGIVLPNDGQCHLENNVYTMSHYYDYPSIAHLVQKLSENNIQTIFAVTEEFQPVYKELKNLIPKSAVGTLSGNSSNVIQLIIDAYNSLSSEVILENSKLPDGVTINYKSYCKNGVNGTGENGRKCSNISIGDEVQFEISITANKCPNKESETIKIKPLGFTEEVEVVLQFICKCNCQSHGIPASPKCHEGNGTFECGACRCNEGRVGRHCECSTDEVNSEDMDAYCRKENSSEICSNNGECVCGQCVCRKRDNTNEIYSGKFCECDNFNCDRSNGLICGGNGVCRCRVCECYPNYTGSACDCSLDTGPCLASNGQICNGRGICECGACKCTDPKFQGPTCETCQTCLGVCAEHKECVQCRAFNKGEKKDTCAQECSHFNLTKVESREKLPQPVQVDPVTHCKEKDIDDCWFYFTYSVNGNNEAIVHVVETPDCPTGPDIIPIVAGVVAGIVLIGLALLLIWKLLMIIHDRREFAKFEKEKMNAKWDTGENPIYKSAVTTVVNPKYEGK
UniProt P01033, residues 24-207: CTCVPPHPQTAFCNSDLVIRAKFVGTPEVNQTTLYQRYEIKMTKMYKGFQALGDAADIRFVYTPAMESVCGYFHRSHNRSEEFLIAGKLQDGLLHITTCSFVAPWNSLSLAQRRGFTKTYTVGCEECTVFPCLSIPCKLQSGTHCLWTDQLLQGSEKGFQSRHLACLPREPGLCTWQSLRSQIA
UniProt P12032, residues 25-205: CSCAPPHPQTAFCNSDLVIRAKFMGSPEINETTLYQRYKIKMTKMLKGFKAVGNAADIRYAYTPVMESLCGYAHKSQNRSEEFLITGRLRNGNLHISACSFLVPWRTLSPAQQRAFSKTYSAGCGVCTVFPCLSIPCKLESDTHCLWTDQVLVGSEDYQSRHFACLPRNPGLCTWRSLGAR
UniProt P05556: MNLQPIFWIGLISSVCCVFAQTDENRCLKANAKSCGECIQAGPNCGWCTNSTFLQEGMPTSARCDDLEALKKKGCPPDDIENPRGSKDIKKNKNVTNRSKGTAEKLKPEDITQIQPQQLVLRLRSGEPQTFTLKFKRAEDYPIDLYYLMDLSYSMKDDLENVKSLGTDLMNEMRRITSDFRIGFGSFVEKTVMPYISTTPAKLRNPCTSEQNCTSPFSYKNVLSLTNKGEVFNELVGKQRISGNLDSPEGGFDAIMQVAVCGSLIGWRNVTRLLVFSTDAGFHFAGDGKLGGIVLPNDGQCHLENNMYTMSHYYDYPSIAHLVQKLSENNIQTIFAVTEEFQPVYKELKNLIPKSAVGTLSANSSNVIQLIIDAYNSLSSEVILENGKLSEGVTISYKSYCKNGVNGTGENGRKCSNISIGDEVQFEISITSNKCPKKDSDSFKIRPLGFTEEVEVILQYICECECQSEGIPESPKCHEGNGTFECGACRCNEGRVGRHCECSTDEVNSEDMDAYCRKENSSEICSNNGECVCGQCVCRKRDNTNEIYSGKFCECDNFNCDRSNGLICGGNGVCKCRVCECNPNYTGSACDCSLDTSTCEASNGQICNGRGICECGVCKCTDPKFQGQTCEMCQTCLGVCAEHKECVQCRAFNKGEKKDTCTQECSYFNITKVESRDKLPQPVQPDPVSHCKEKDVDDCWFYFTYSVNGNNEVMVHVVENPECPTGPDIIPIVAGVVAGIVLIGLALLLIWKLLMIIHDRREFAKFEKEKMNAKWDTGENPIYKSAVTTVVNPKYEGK

[3] = target: T1, CD63 (tetraspanin), murine (mouse (endogenous in melan-a, 4C, 4C11- and 4C11+ cells)); experiment: co-IP; membrane-enriched extracts of murine pre-malignant 4C melanocytes; immunoprecipitated with anti-β1-integrin or anti-CD63 on protein G-agarose, 4°C; Western blot with anti-Timp1 or anti-β1-integrin
[4] = target: β1-integrin, murine (mouse (endogenous in melan-a, 4C, 4C11- and 4C11+ cells)) (UniProt P09055); experiment: condition: only in extracts of pre-malignant 4C melanocytes; co-IP; membrane-enriched extracts of murine pre-malignant 4C melanocytes; immunoprecipitated with anti-β1-integrin or anti-CD63 on protein G-agarose, 4°C; Western blot with anti-Timp1 or anti-β1-integrin
[5] = target: TIMP1, human (human (endogenous in MP#2, Mel2, Mel3 and Mel14 cells)) (UniProt P01033); experiment: condition: only in extracts of primary human melanocytes MP#2; co-IP; membrane-enriched extracts of primary human melanocytes MP#2; immunoprecipitated with anti-TIMP1 on protein G-agarose, 4°C; Western blot with anti-β1-integrin
[6] = target: TIMP1, human (human (endogenous in MP#2, Mel2, Mel3 and Mel14 cells)) (UniProt P01033); experiment: co-IP; membrane-enriched extracts of human metastatic melanoma cells Mel2, Mel3 and Mel14; immunoprecipitated with anti-TIMP1 on protein G-agarose, 4°C; Western blot with anti-β1-integrin
[7] = target: T1, CD63 (tetraspanin), murine (mouse (endogenous in melan-a, 4C, 4C11- and 4C11+ cells)); experiment: co-IP; membrane-enriched extracts of murine non-tumorigenic melan-a melanocytes; immunoprecipitated with anti-CD63 on protein G-agarose, 4°C; Western blot with anti-β1-integrin

Timp1 (tissue inhibitor of metalloproteinases 1), murine (from UniProt P12032 25-205)
binding [1]: binds
binding [2]: binds
binding [3]: binds
binding [4]: no binding

β1-integrin, human (from UniProt P05556 21-798) (receptor)
binding [5]: no binding
binding [6]: binds

β1-integrin, murine (from UniProt P09055 21-798) (receptor)
binding [2]: binds
binding [3]: binds
binding [7]: binds weakly
